PMC10693172
Results are given in words; binding and its absence hold for the method and conditions named. Binding seen in cells or lysates may run through a third protein. Some entries that bind do so weakly or less than the wild type. For some of these results: Sequences can lack the tags named with a protein.

Chains of the proteins cited; added tags and fusions are not shown. Lines headed by an entry give the natural chain unless they say otherwise; changes in a name come on top. Residues count along the entry.
UniProt Q08211: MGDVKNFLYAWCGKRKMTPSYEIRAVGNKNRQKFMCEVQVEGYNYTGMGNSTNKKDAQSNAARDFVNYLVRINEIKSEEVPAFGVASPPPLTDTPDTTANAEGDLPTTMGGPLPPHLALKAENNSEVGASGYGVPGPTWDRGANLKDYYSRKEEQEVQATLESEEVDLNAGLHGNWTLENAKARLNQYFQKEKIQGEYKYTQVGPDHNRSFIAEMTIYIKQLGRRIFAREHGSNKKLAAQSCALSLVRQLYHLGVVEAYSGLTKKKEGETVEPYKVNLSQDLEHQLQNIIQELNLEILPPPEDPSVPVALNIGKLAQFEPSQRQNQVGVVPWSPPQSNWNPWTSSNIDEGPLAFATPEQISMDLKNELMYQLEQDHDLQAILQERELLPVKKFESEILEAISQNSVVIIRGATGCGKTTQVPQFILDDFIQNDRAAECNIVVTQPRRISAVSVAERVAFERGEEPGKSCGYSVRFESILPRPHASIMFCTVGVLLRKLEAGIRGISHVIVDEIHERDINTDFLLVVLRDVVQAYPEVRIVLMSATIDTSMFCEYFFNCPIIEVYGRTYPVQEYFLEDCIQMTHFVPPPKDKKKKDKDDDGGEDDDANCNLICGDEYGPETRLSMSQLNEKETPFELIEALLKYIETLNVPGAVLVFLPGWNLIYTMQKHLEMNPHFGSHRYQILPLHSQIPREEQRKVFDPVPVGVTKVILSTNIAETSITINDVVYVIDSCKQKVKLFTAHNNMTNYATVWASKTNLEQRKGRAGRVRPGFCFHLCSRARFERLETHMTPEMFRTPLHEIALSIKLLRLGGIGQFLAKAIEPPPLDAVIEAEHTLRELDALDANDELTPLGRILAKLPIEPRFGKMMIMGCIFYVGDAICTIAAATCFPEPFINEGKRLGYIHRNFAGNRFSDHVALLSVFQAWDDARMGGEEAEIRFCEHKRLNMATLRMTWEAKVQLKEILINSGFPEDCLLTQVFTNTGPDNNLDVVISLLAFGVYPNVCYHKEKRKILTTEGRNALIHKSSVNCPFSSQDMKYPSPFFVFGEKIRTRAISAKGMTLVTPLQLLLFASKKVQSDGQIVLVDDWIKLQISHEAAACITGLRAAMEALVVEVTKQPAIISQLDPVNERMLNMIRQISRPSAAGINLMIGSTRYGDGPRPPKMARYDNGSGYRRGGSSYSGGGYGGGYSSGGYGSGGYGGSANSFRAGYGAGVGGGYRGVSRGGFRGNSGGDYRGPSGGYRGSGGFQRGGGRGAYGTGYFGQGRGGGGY
DHX9 Myc 1, residues 1-254: residues 1-254 of Q08211
DHX9 Myc 2, residues 255-635: residues 255-635 of Q08211
DHX9 Myc 3, residues 636-1200: residues 636-1200 of Q08211

Legend:
[1] = target: DHX9 (DExH-box helicase 9) (human (endogenous in AGS and HGC-27)) (UniProt Q08211); experiment: co-IP; endogenous proteins, AGS and HGC-27 lysates, DHX9 and ILF3 antibodies (Fig. 7A); anti-DHX9 co-IP from cells with DHRS4-AS1 overexpressed or knocked down, pretreated with MG132 (5 µM) for 90 min (Fig. 7G)
[2] = target: DHX9 Myc 3, residues 636-1200 (UniProt Q08211); experiment: co-IP; lysates of HEK293 cells transfected with ILF3-Flag and DHX9-Myc constructs; co-IP performed with anti-Myc, western blot (Fig. 7B, 7C)
[3] = target: DHX9-Myc, full-length (UniProt Q08211); experiment: as above
[4] = target: DHX9 Myc 1, residues 1-254 (UniProt Q08211); experiment: as above
[5] = target: DHX9 Myc 2, residues 255-635 (UniProt Q08211); experiment: as above

binding [1] | binding [2] | binding [3] | binding [4] | binding [5] | Binder
binds | – | – | – | – | ILF3 (Interleukin enhancer Binding Factor 3) (protein, UniProt Q12906 1-894) MRPMRIFVNDDRHVMAKHSSVYPTQEELEAVQNMVSHTERALKAVSDWIDEQEKGSSEQAESDNMDVPPEDDSKEGAGEQKTEHMTRTLRGVMRVGLVAKGLLLKGDLDLELVLLCKEKPTTALLDKVADNLAIQLAAVTEDKYEILQSVDDAAIVIKNTKEPPLSLTIHLTSPVVREEMEKVLAGETLSVNDPPDVLDRQKCLAALASLRHAKWFQARANGLKSCVIVIRVLRDLCTRVPTWGPLRGWPLELLCEKSIGTANRPMGAGEALRRVLECLASGIVMPDGSGIYDPCEKEATDAIGHLDRQQREDITQSAQHALRLAAFGQLHKVLGMDPLPSKMPKKPKNENPVDYTVQIPPSTTYAITPMKRPMEEDGEEKSPSKKKKKIQKKEEKAEPPQAMNALMRLNQLKPGLQYKLVSQTGPVHAPIFTMSVEVDGNSFEASGPSKKTAKLHVAVKVLQDMGLPTGAEGRDSSKGEDSAEETEAKPAVVAPAPVVEAVSTPSAAFPSDATAEQGPILTKHGKNPVMELNEKRRGLKYELISETGGSHDKRFVMEVEVDGQKFQGAGSNKKVAKAYAALAALEKLFPDTPLALDANKKKRAPVPVRGGPKFAAKPHNPGFGMGGPMHNEVPPPPNLRGRGRGGSIRGRGRGRGFGGANHGGYMNAGAGYGSYGYGGNSATAGYSQFYSNGGHSGNASGGGGGGGGGSSGYGSYYQGDNYNSPVPPKHAGKKQPHGGQQKPSYGSGYQSHQGQQQSYNQSPYSNYGPPQGKQKGYNHGQGSYSYSNSYNSPGGGGGSDYNYESKFNYSGSGGRSGGNSYGSGGASYNPGSHGGYGGGSGGGSSYQGKQGGYSQSNYNSPGSGQNYSGPPSSYQSSQGGYGRNADHSMNYQYR
– | binds | binds | no binding | no binding | ILF3-Flag, full-length (protein, UniProt Q12906 1-894) MRPMRIFVNDDRHVMAKHSSVYPTQEELEAVQNMVSHTERALKAVSDWIDEQEKGSSEQAESDNMDVPPEDDSKEGAGEQKTEHMTRTLRGVMRVGLVAKGLLLKGDLDLELVLLCKEKPTTALLDKVADNLAIQLAAVTEDKYEILQSVDDAAIVIKNTKEPPLSLTIHLTSPVVREEMEKVLAGETLSVNDPPDVLDRQKCLAALASLRHAKWFQARANGLKSCVIVIRVLRDLCTRVPTWGPLRGWPLELLCEKSIGTANRPMGAGEALRRVLECLASGIVMPDGSGIYDPCEKEATDAIGHLDRQQREDITQSAQHALRLAAFGQLHKVLGMDPLPSKMPKKPKNENPVDYTVQIPPSTTYAITPMKRPMEEDGEEKSPSKKKKKIQKKEEKAEPPQAMNALMRLNQLKPGLQYKLVSQTGPVHAPIFTMSVEVDGNSFEASGPSKKTAKLHVAVKVLQDMGLPTGAEGRDSSKGEDSAEETEAKPAVVAPAPVVEAVSTPSAAFPSDATAEQGPILTKHGKNPVMELNEKRRGLKYELISETGGSHDKRFVMEVEVDGQKFQGAGSNKKVAKAYAALAALEKLFPDTPLALDANKKKRAPVPVRGGPKFAAKPHNPGFGMGGPMHNEVPPPPNLRGRGRGGSIRGRGRGRGFGGANHGGYMNAGAGYGSYGYGGNSATAGYSQFYSNGGHSGNASGGGGGGGGGSSGYGSYYQGDNYNSPVPPKHAGKKQPHGGQQKPSYGSGYQSHQGQQQSYNQSPYSNYGPPQGKQKGYNHGQGSYSYSNSYNSPGGGGGSDYNYESKFNYSGSGGRSGGNSYGSGGASYNPGSHGGYGGGSGGGSSYQGKQGGYSQSNYNSPGSGQNYSGPPSSYQSSQGGYGRNADHSMNYQYR
– | – | binds | – | – | ILF3 Flag 3, residues 592-894 (domain or fragment, UniProt Q12906 592-894) TPLALDANKKKRAPVPVRGGPKFAAKPHNPGFGMGGPMHNEVPPPPNLRGRGRGGSIRGRGRGRGFGGANHGGYMNAGAGYGSYGYGGNSATAGYSQFYSNGGHSGNASGGGGGGGGGSSGYGSYYQGDNYNSPVPPKHAGKKQPHGGQQKPSYGSGYQSHQGQQQSYNQSPYSNYGPPQGKQKGYNHGQGSYSYSNSYNSPGGGGGSDYNYESKFNYSGSGGRSGGNSYGSGGASYNPGSHGGYGGGSGGGSSYQGKQGGYSQSNYNSPGSGQNYSGPPSSYQSSQGGYGRNADHSMNYQYR
– | – | binds | – | – | ILF3 Flag 1, residues 1-378 (domain or fragment, UniProt Q12906 1-378) MRPMRIFVNDDRHVMAKHSSVYPTQEELEAVQNMVSHTERALKAVSDWIDEQEKGSSEQAESDNMDVPPEDDSKEGAGEQKTEHMTRTLRGVMRVGLVAKGLLLKGDLDLELVLLCKEKPTTALLDKVADNLAIQLAAVTEDKYEILQSVDDAAIVIKNTKEPPLSLTIHLTSPVVREEMEKVLAGETLSVNDPPDVLDRQKCLAALASLRHAKWFQARANGLKSCVIVIRVLRDLCTRVPTWGPLRGWPLELLCEKSIGTANRPMGAGEALRRVLECLASGIVMPDGSGIYDPCEKEATDAIGHLDRQQREDITQSAQHALRLAAFGQLHKVLGMDPLPSKMPKKPKNENPVDYTVQIPPSTTYAITPMKRPMEEDG
